# In all, about 81,000 sequences were measured (“one-hybrid fitness for binding parS DNA”: median about -0.17, highest 2% from about 0.51 on). The list shows a part of the results.
# B1: Caulobacter ParB omega fusion; a variant is named by its letters at X, in order, B8GW30 (parent)
# chain: MESVVVGEPGMSEGRRGLGRGLSALLGEVDAAPAQAPGEQLGGSREAPIEILQRNPDQPRRTFREEDLEDLSNSIREKGVLQPILVRPSPDTAGEYQIVAGERAWRAAQRAGLKTVPIMVRELDDLAVLEIGIIENVQRADLNVLEEALSYKVLMEKFERTQENIAQTIGKSXSHVANXMRLLXLPDEVQSYLVSGELTAXHARAIAAAADPVALAKQIIEGGLSVRETEALARKAPNLSAGKSKGGRPPRVKDTDTQALESDLSSVLGLDVSIDHRGSTGTLTITYATLEQLDDLCNRLTRGI
# Variants of: B1
# Assay: one-hybrid fitness for binding parS DNA (scaled: cognate 1, non-cognate 0); higher = stronger binding
# Details: with parS DNA site
# Summary of the method: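 The reporter was HIS3, with the binding site 19 bp from the promoter, in E. coli USO used for bacterial one-hybrid selection of Caulobacter ParB libraries with four specificity codons randomised. Growth was on M9 lacking histidine, with 0.1 mM IPTG and 5 mM 3-AT, for 48 hours at 37°C. Illumina sequencing covered plasmids before and after selection; three replicate libraries were pooled and variants with under 10 reads dropped. A fitness score is the log change in variant-to-wild-type read ratio, rescaled to the cognate and non-cognate references.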
row,Variant,one-hybrid fitness for binding parS DNA
1,TSTS,≤ 0.2
2,MFSR,≤ 0.2
3,HRQQ,≤ 0.2
4,NSVL,≤ 0.2
5,TRAI,≤ 0.2
6,RRGF,≤ 0.2
7,LQEA,≤ 0.2
8,GTCL,≤ 0.2
9,QKLC,≤ 0.2
10,GSYT,≤ 0.2
11,ARIS,≤ 0.2
12,CRIA,≤ 0.2
13,SLPP,≤ 0.2
14,KFGR,≤ 0.2
15,SQHN,≤ 0.2
16,KRMR,≤ 0.2
17,YIQG,≤ 0.2
18,IRRQ,≤ 0.2
19,RLAC,0.995
20,QYHL,≤ 0.2
21,QLTN,≤ 0.2
22,PCSQ,≤ 0.2
23,SHGM,≤ 0.2
24,RREQ,≤ 0.2
25,SIPE,≤ 0.2
26,WMKS,≤ 0.2

row,Variant,one-hybrid fitness for binding parS DNA
1,HEMV,≤ 0.2
2,PHGM,≤ 0.2
3,PFNQ,≤ 0.2
4,QFAA,≤ 0.2
5,KWCS,≤ 0.2
6,AFPR,≤ 0.2
7,GKPV,≤ 0.2
8,QHNG,≤ 0.2
9,HSCA,≤ 0.2
10,TCGL,≤ 0.2
11,RHEF,≤ 0.2
12,WCSC,≤ 0.2
13,DETW,≤ 0.2
14,PASK,≤ 0.2
15,PRVV,≤ 0.2
16,RESC,0.215
17,HGSM,≤ 0.2
18,SRPF,≤ 0.2
19,CRKH,≤ 0.2
20,CSQR,≤ 0.2
21,FIPM,≤ 0.2
22,NPQA,≤ 0.2
23,SAGG,≤ 0.2
24,QEEG,≤ 0.2
25,SQIC,≤ 0.2
26,RISS,0.992

row,Variant,one-hybrid fitness for binding parS DNA
1,SHII,≤ 0.2
2,WRHY,≤ 0.2
3,DKPS,≤ 0.2
4,VATT,≤ 0.2
5,LNRP,≤ 0.2
6,SGYK,≤ 0.2
7,GIKS,≤ 0.2
8,ARCA,≤ 0.2
9,KAPC,≤ 0.2
10,SRRN,≤ 0.2
11,PEKT,≤ 0.2
12,RPRD,≤ 0.2
13,EFNR,≤ 0.2
14,RHTR,≤ 0.2
15,QFNC,≤ 0.2
16,NKIS,≤ 0.2
17,RPSM,≤ 0.2
18,GRPY,≤ 0.2
19,QCLP,≤ 0.2
20,YLGN,≤ 0.2
21,HMMC,≤ 0.2
22,PLGS,≤ 0.2
23,YAIF,≤ 0.2
24,RIQH,≤ 0.2

# — a collection of fitness landscapes (doi:10.1016/j.celrep.2020.107928)
